Experimental data as given in article PMC12820563, “FoxP3 forms a head-to-head dimer in vivo and stabilizes its multimerization on adjacent microsatellites”.
The list shows a part of the results.

biological target: T1, MBP-FoxP1dN (Mus musculus, UniProt P58462 326-579); test: PD-seq (MBP pull-down with sequencing); 20 mM Tris-HCl pH 7.5, 100 mM NaCl, 1.5 mM MgCl2, 0.4 uM protein, 0.1 uM dsDNA library, 30 min, room temperature, amylose pull-down; high values mean tight binding; settings: protein: recombinant; tags: His6-MBP; chain copies: 2; dsDNA, one strand shown
T1 sequence: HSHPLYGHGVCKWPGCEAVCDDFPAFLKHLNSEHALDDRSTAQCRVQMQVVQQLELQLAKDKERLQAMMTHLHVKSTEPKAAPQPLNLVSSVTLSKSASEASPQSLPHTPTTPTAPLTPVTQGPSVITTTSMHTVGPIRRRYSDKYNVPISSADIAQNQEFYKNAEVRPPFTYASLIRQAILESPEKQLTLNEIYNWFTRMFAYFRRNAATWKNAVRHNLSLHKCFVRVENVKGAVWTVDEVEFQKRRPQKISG
Summary of the method: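 Amylose resin was used to capture complexes formed during 30 min at room temperature in Tris pH 7.5 buffer with NaCl and MgCl2 between 0.4 µM His6-MBP-tagged mouse FoxP3 or FoxP1 fragment lacking the N-terminus, expressed in E. coli, and 0.1 µM Klenow-filled double-stranded degenerate DNA library. After three washes, the DNA was released with proteinase K, barcoded by PCR and sequenced on Illumina. Binding is pooled-replicate reads-per-million enrichment, pull-down over input.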

Sequence | binding signal
GATGATTGTTCTCCCAGCTGATGAATTAGTAGCGTCGAGTAAACAAATTTTCCTAATCTTTCTGTTCAAGCGCCATCTAC | 0.975 RPM ratio (pull-down/input)
GATGATTGTTCTCCCAGCTGATGAATTTGTATAGTCGAGTAAACAAATTTTCCTAATCTTTCTGTTCAAGCGCCATCTAC | 1.26 RPM ratio (pull-down/input)
GATGATTGTTCTCCCAGCTGATGAATTGGTGTGCTCGAGTAAACAAATTTTCCTAATCTTTCTGTTCAAGCGCCATCTAC | 0.936 RPM ratio (pull-down/input)
GATGATTGTTCTCCCAGCTGATGAATTTAACGACTCGAGTAAACAAATTTTCCTAATCTTTCTGTTCAAGCGCCATCTAC | 0.649 RPM ratio (pull-down/input)
GATGATTGTTCTCCCAGCTGATGAATTCAAAAAGTCGAGTAAACAAATTTTCCTAATCTTTCTGTTCAAGCGCCATCTAC | 0.844 RPM ratio (pull-down/input)
GATGATTGTTCTCCCAGCTGATGAATTGAGACTTTCGAGTAAACAAATTTTCCTAATCTTTCTGTTCAAGCGCCATCTAC | 0.884 RPM ratio (pull-down/input)
GATGATTGTTCTCCCAGCTGATGAATTAGGAAGATCGAGTAAACAAATTTTCCTAATCTTTCTGTTCAAGCGCCATCTAC | 0.882 RPM ratio (pull-down/input)
GATGATTGTTCTCCCAGCTGATGAATTGGGGGTTTCGAGTAAACAAATTTTCCTAATCTTTCTGTTCAAGCGCCATCTAC | 0.804 RPM ratio (pull-down/input)
GATGATTGTTCTCCCAGCTGATGAATTATACAATTCGAGTAAACAAATTTTCCTAATCTTTCTGTTCAAGCGCCATCTAC | 1.4 RPM ratio (pull-down/input)
GATGATTGTTCTCCCAGCTGATGAATTTGGAAGTTCGAGTAAACAAATTTTCCTAATCTTTCTGTTCAAGCGCCATCTAC | 0.915 RPM ratio (pull-down/input)
GATGATTGTTCTCCCAGCTGATGAATTTAGAACCTCGAGTAAACAAATTTTCCTAATCTTTCTGTTCAAGCGCCATCTAC | 0.936 RPM ratio (pull-down/input)
GATGATTGTTCTCCCAGCTGATGAATTAATACCCTCGAGTAAACAAATTTTCCTAATCTTTCTGTTCAAGCGCCATCTAC | 1.06 RPM ratio (pull-down/input)
GATGATTGTTCTCCCAGCTGATGAATTGAGTTATTCGAGTAAACAAATTTTCCTAATCTTTCTGTTCAAGCGCCATCTAC | 1.06 RPM ratio (pull-down/input)
GATGATTGTTCTCCCAGCTGATGAATTCGCTCGGTCGAGTAAACAAATTTTCCTAATCTTTCTGTTCAAGCGCCATCTAC | 0.762 RPM ratio (pull-down/input)
GATGATTGTTCTCCCAGCTGATGAATTCGAGCCTTCGAGTAAACAAATTTTCCTAATCTTTCTGTTCAAGCGCCATCTAC | 0.862 RPM ratio (pull-down/input)
GATGATTGTTCTCCCAGCTGATGAATTGGATAGCTCGAGTAAACAAATTTTCCTAATCTTTCTGTTCAAGCGCCATCTAC | 0.85 RPM ratio (pull-down/input)
GATGATTGTTCTCCCAGCTGATGAATTGCAAATATCGAGTAAACAAATTTTCCTAATCTTTCTGTTCAAGCGCCATCTAC | 1.85 RPM ratio (pull-down/input)
GATGATTGTTCTCCCAGCTGATGAATTATAGGATTCGAGTAAACAAATTTTCCTAATCTTTCTGTTCAAGCGCCATCTAC | 0.909 RPM ratio (pull-down/input)
GATGATTGTTCTCCCAGCTGATGAATTATTGGCATCGAGTAAACAAATTTTCCTAATCTTTCTGTTCAAGCGCCATCTAC | 1.31 RPM ratio (pull-down/input)
GATGATTGTTCTCCCAGCTGATGAATTTCTACGATCGAGTAAACAAATTTTCCTAATCTTTCTGTTCAAGCGCCATCTAC | 0.948 RPM ratio (pull-down/input)
GATGATTGTTCTCCCAGCTGATGAATTGGACCCCTCGAGTAAACAAATTTTCCTAATCTTTCTGTTCAAGCGCCATCTAC | 0.748 RPM ratio (pull-down/input)

Sequence | binding signal
GATGATTGTTCTCCCAGCTGATGAATTCGCCCGGTCGAGTAAACAAATTTTCCTAATCTTTCTGTTCAAGCGCCATCTAC | 0.767 RPM ratio (pull-down/input)
GATGATTGTTCTCCCAGCTGATGAATTCGGGCACTCGAGTAAACAAATTTTCCTAATCTTTCTGTTCAAGCGCCATCTAC | 0.858 RPM ratio (pull-down/input)
GATGATTGTTCTCCCAGCTGATGAATTTAGGGCCTCGAGTAAACAAATTTTCCTAATCTTTCTGTTCAAGCGCCATCTAC | 0.861 RPM ratio (pull-down/input)
GATGATTGTTCTCCCAGCTGATGAATTCGGTGCGTCGAGTAAACAAATTTTCCTAATCTTTCTGTTCAAGCGCCATCTAC | 0.966 RPM ratio (pull-down/input)
GATGATTGTTCTCCCAGCTGATGAATTACCTGTGTCGAGTAAACAAATTTTCCTAATCTTTCTGTTCAAGCGCCATCTAC | 1.05 RPM ratio (pull-down/input)
GATGATTGTTCTCCCAGCTGATGAATTTGACATTTCGAGTAAACAAATTTTCCTAATCTTTCTGTTCAAGCGCCATCTAC | 0.878 RPM ratio (pull-down/input)
GATGATTGTTCTCCCAGCTGATGAATTGTTGCCATCGAGTAAACAAATTTTCCTAATCTTTCTGTTCAAGCGCCATCTAC | 1.53 RPM ratio (pull-down/input)
GATGATTGTTCTCCCAGCTGATGAATTGTTCGGATCGAGTAAACAAATTTTCCTAATCTTTCTGTTCAAGCGCCATCTAC | 1.02 RPM ratio (pull-down/input)
GATGATTGTTCTCCCAGCTGATGAATTGAGGCAGTCGAGTAAACAAATTTTCCTAATCTTTCTGTTCAAGCGCCATCTAC | 0.928 RPM ratio (pull-down/input)
GATGATTGTTCTCCCAGCTGATGAATTCTATTAGTCGAGTAAACAAATTTTCCTAATCTTTCTGTTCAAGCGCCATCTAC | 1.14 RPM ratio (pull-down/input)
GATGATTGTTCTCCCAGCTGATGAATTACCTGGGTCGAGTAAACAAATTTTCCTAATCTTTCTGTTCAAGCGCCATCTAC | 0.871 RPM ratio (pull-down/input)
GATGATTGTTCTCCCAGCTGATGAATTCGCCGGATCGAGTAAACAAATTTTCCTAATCTTTCTGTTCAAGCGCCATCTAC | 0.812 RPM ratio (pull-down/input)
GATGATTGTTCTCCCAGCTGATGAATTAGGTCTTTCGAGTAAACAAATTTTCCTAATCTTTCTGTTCAAGCGCCATCTAC | 0.894 RPM ratio (pull-down/input)
GATGATTGTTCTCCCAGCTGATGAATTAAAATTTTCGAGTAAACAAATTTTCCTAATCTTTCTGTTCAAGCGCCATCTAC | 0.956 RPM ratio (pull-down/input)
GATGATTGTTCTCCCAGCTGATGAATTAGGTCTCTCGAGTAAACAAATTTTCCTAATCTTTCTGTTCAAGCGCCATCTAC | 0.802 RPM ratio (pull-down/input)
GATGATTGTTCTCCCAGCTGATGAATTTGAACACTCGAGTAAACAAATTTTCCTAATCTTTCTGTTCAAGCGCCATCTAC | 0.93 RPM ratio (pull-down/input)
GATGATTGTTCTCCCAGCTGATGAATTAGTCCCGTCGAGTAAACAAATTTTCCTAATCTTTCTGTTCAAGCGCCATCTAC | 0.909 RPM ratio (pull-down/input)
GATGATTGTTCTCCCAGCTGATGAATTATGCCCGTCGAGTAAACAAATTTTCCTAATCTTTCTGTTCAAGCGCCATCTAC | 0.958 RPM ratio (pull-down/input)
GATGATTGTTCTCCCAGCTGATGAATTTCAGACCTCGAGTAAACAAATTTTCCTAATCTTTCTGTTCAAGCGCCATCTAC | 0.717 RPM ratio (pull-down/input)
GATGATTGTTCTCCCAGCTGATGAATTATCGCTCTCGAGTAAACAAATTTTCCTAATCTTTCTGTTCAAGCGCCATCTAC | 0.968 RPM ratio (pull-down/input)
GATGATTGTTCTCCCAGCTGATGAATTCCGTGTTTCGAGTAAACAAATTTTCCTAATCTTTCTGTTCAAGCGCCATCTAC | 0.891 RPM ratio (pull-down/input)

Sequence | binding signal
GATGATTGTTCTCCCAGCTGATGAATTTGTGCACTCGAGTAAACAAATTTTCCTAATCTTTCTGTTCAAGCGCCATCTAC | 1.12 RPM ratio (pull-down/input)
GATGATTGTTCTCCCAGCTGATGAATTCGGTTACTCGAGTAAACAAATTTTCCTAATCTTTCTGTTCAAGCGCCATCTAC | 0.871 RPM ratio (pull-down/input)
GATGATTGTTCTCCCAGCTGATGAATTTGTTCGGTCGAGTAAACAAATTTTCCTAATCTTTCTGTTCAAGCGCCATCTAC | 1.08 RPM ratio (pull-down/input)
GATGATTGTTCTCCCAGCTGATGAATTAATACCGTCGAGTAAACAAATTTTCCTAATCTTTCTGTTCAAGCGCCATCTAC | 1.03 RPM ratio (pull-down/input)
GATGATTGTTCTCCCAGCTGATGAATTCACGACTTCGAGTAAACAAATTTTCCTAATCTTTCTGTTCAAGCGCCATCTAC | 0.834 RPM ratio (pull-down/input)
GATGATTGTTCTCCCAGCTGATGAATTCGCTGAGTCGAGTAAACAAATTTTCCTAATCTTTCTGTTCAAGCGCCATCTAC | 0.822 RPM ratio (pull-down/input)
GATGATTGTTCTCCCAGCTGATGAATTTTTACTGTCGAGTAAACAAATTTTCCTAATCTTTCTGTTCAAGCGCCATCTAC | 0.975 RPM ratio (pull-down/input)
GATGATTGTTCTCCCAGCTGATGAATTTAGGTAGTCGAGTAAACAAATTTTCCTAATCTTTCTGTTCAAGCGCCATCTAC | 0.982 RPM ratio (pull-down/input)
GATGATTGTTCTCCCAGCTGATGAATTCTCTCGTTCGAGTAAACAAATTTTCCTAATCTTTCTGTTCAAGCGCCATCTAC | 0.866 RPM ratio (pull-down/input)
GATGATTGTTCTCCCAGCTGATGAATTGGCCTAGTCGAGTAAACAAATTTTCCTAATCTTTCTGTTCAAGCGCCATCTAC | 0.821 RPM ratio (pull-down/input)
GATGATTGTTCTCCCAGCTGATGAATTGTTTAGTTCGAGTAAACAAATTTTCCTAATCTTTCTGTTCAAGCGCCATCTAC | 1.94 RPM ratio (pull-down/input)
GATGATTGTTCTCCCAGCTGATGAATTCTGCAACTCGAGTAAACAAATTTTCCTAATCTTTCTGTTCAAGCGCCATCTAC | 0.954 RPM ratio (pull-down/input)
GATGATTGTTCTCCCAGCTGATGAATTAGACGACTCGAGTAAACAAATTTTCCTAATCTTTCTGTTCAAGCGCCATCTAC | 0.881 RPM ratio (pull-down/input)
GATGATTGTTCTCCCAGCTGATGAATTTCTTTGCTCGAGTAAACAAATTTTCCTAATCTTTCTGTTCAAGCGCCATCTAC | 0.931 RPM ratio (pull-down/input)
GATGATTGTTCTCCCAGCTGATGAATTTTACACGTCGAGTAAACAAATTTTCCTAATCTTTCTGTTCAAGCGCCATCTAC | 0.96 RPM ratio (pull-down/input)
GATGATTGTTCTCCCAGCTGATGAATTAAGCTCATCGAGTAAACAAATTTTCCTAATCTTTCTGTTCAAGCGCCATCTAC | 0.881 RPM ratio (pull-down/input)
GATGATTGTTCTCCCAGCTGATGAATTATGTCGTTCGAGTAAACAAATTTTCCTAATCTTTCTGTTCAAGCGCCATCTAC | 1.12 RPM ratio (pull-down/input)
GATGATTGTTCTCCCAGCTGATGAATTGGGAGCCTCGAGTAAACAAATTTTCCTAATCTTTCTGTTCAAGCGCCATCTAC | 0.844 RPM ratio (pull-down/input)
GATGATTGTTCTCCCAGCTGATGAATTGGACAGCTCGAGTAAACAAATTTTCCTAATCTTTCTGTTCAAGCGCCATCTAC | 0.859 RPM ratio (pull-down/input)
GATGATTGTTCTCCCAGCTGATGAATTTCCAAACTCGAGTAAACAAATTTTCCTAATCTTTCTGTTCAAGCGCCATCTAC | 0.878 RPM ratio (pull-down/input)
GATGATTGTTCTCCCAGCTGATGAATTCGTGTACTCGAGTAAACAAATTTTCCTAATCTTTCTGTTCAAGCGCCATCTAC | 1.03 RPM ratio (pull-down/input)
